Test results as given in the supplement of paper PMC12217912.
The list shows a part of the results. Sequences were assembled here from the parent chain. Values near 0.05 are background.

B1: TEV protease; numbered along this chain (parent)
chain: MGESLFKGPRDYNPISSSICHLTNESDGHTTSLYGIGFGPFIITNKHLFRRNNGTLVVQSLHGVFKVKDTTTLQQHLVDGRDMIIIRMPKDFPPFPQKLKFREPQREERICLVTTNFQTKSMSSMVSDTSCTFPSGDGIFWKHWIQTKDGQCGSPLVSTRDGFIVGIHSASNFTNTNNYFTSVPKNFMELLTNQEAQQWVSGWRLNADSVLWGGHKVFMVKPEEPFQPVKEATQL

Variants of: B1
Test: raw area under fraction-flipped curve 0-4 h after induction (AUC4h, not background-subtracted), DNA-recorder readout of cleavage of the substrate (dimensionless); higher = more cleavage of the substrate by the protease variant
Conditions: temperature: 34 °C; time window: 0-4 h after rhamnose induction
Protocol: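 In vivo DNA recorder in E. coli TOP10(DE3) ΔrhaA at 34 °C. Each TEVp single-site mutant (parent TEVp 0) is paired with a single-site variant of the 7-mer TEVs (canonical ENLYFQ|S). The substrate sits between flexible linkers in a Bxb1-sfGFP-TEVs-SsrA fusion, so cleavage stabilises Bxb1 and speeds flipping of a recombination array, read by NGS. The value is the raw area under the fraction-flipped curve over 0-4 h after rhamnose induction (AUC4h), with ≥20 reads per time point. It is not background-subtracted; inactive controls average about 0.047.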
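Note: Bxb1 expression induced with 0.2% (w/v) L-rhamnose at OD600 near 0.5, cultures sampled hourly, flipped fraction per protease–substrate barcode pair counted by paired-end Illumina sequencing.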

For MGMSLFKGPRDYNPISSSICHLTNESDGHTTSLYGIGFGPFIITNKHLFRRNNGTLVVQSLHGVFKVKDTTTLQQHLVDGRDMIIIRMPKDFPPFPQKLKFREPQREERICLVTTNFQTKSMSSMVSDTSCTFPSGDGIFWKHWIQTKDGQCGSPLVSTRDGFIVGIHSASNFTNTNNYFTSVPKNFMELLTNQEAQQWVSGWRLNADSVLWGGHKVFMVKPEEPFQPVKEATQL [E3M], the “area with substrate EALYFQS” value was 0.139, the “area with substrate ECLYFQS” value was 0.122 and the “area with substrate EDLYFQS” value was 0.151. The “area with substrate EELYFQS” value was 0.194, the “area with substrate EGLYFQS” value was 0.123 and the “area with substrate EHLYFQS” value was 0.129. The “area with substrate EILYFQS” value was 0.0847, the “area with substrate ELLYFQS” value was 0.115 and the “area with substrate EPLYFQS” value was 0.163. For the same variant, the “area with substrate EQLYFQS” value was 0.155, the “area with substrate ERLYFQS” value was 0.143 and the “area with substrate ESLYFQS” value was 0.137. The “area with substrate EVLYFQS” value was 0.111 and the “area with substrate EWLYFQS” value was 0.143.

In the case of MGQSLFKGPRDYNPISSSICHLTNESDGHTTSLYGIGFGPFIITNKHLFRRNNGTLVVQSLHGVFKVKDTTTLQQHLVDGRDMIIIRMPKDFPPFPQKLKFREPQREERICLVTTNFQTKSMSSMVSDTSCTFPSGDGIFWKHWIQTKDGQCGSPLVSTRDGFIVGIHSASNFTNTNNYFTSVPKNFMELLTNQEAQQWVSGWRLNADSVLWGGHKVFMVKPEEPFQPVKEATQL [E3Q], the “area with substrate EALYFQS” value is reported as 0.113, the “area with substrate ECLYFQS” value is reported as 0.106 and the “area with substrate EDLYFQS” value is reported as 0.0937. The “area with substrate EGLYFQS” value was 0.107, the “area with substrate EHLYFQS” value was 0.103 and the “area with substrate EKLYFQS” value was 0.0794. The “area with substrate ELLYFQS” value was 0.0918, the “area with substrate EMLYFQS” value was 0.0907 and the “area with substrate ERLYFQS” value was 0.0743. For the same variant, the “area with substrate ESLYFQS” value was 0.0995, the “area with substrate EVLYFQS” value was 0.0866 and the “area with substrate EWLYFQS” value was 0.0771. For the same variant, the “area with substrate EYLYFQS” value was 0.116.

In the case of MGHSLFKGPRDYNPISSSICHLTNESDGHTTSLYGIGFGPFIITNKHLFRRNNGTLVVQSLHGVFKVKDTTTLQQHLVDGRDMIIIRMPKDFPPFPQKLKFREPQREERICLVTTNFQTKSMSSMVSDTSCTFPSGDGIFWKHWIQTKDGQCGSPLVSTRDGFIVGIHSASNFTNTNNYFTSVPKNFMELLTNQEAQQWVSGWRLNADSVLWGGHKVFMVKPEEPFQPVKEATQL [E3H], the “area with substrate EALYFQS” value is reported as 0.132, the “area with substrate ECLYFQS” value is reported as 0.108 and the “area with substrate EDLYFQS” value is reported as 0.127. The “area with substrate EELYFQS” value was 0.0898, the “area with substrate EHLYFQS” value was 0.0847 and the “area with substrate EKLYFQS” value was 0.0635. The “area with substrate ELLYFQS” value was 0.0744, the “area with substrate EMLYFQS” value was 0.121 and the “area with substrate EQLYFQS” value was 0.121. The “area with substrate ERLYFQS” value was 0.139, the “area with substrate ESLYFQS” value was 0.116 and the “area with substrate ETLYFQS” value was 0.13. The “area with substrate EVLYFQS” value was 0.118.

In the case of MGESLFKGPMDYNPISSSICHLTNESDGHTTSLYGIGFGPFIITNKHLFRRNNGTLVVQSLHGVFKVKDTTTLQQHLVDGRDMIIIRMPKDFPPFPQKLKFREPQREERICLVTTNFQTKSMSSMVSDTSCTFPSGDGIFWKHWIQTKDGQCGSPLVSTRDGFIVGIHSASNFTNTNNYFTSVPKNFMELLTNQEAQQWVSGWRLNADSVLWGGHKVFMVKPEEPFQPVKEATQL [R10M], the “area with substrate EALYFQS” value is reported as 0.126, the “area with substrate ECLYFQS” value is reported as 0.114 and the “area with substrate EDLYFQS” value is reported as 0.158. The “area with substrate EELYFQS” value was 0.13, the “area with substrate EGLYFQS” value was 0.0961 and the “area with substrate EHLYFQS” value was 0.127. For the same variant, the “area with substrate EPLYFQS” value was 0.134, the “area with substrate EQLYFQS” value was 0.137 and the “area with substrate ETLYFQS” value was 0.116. The “area with substrate EVLYFQS” value was 0.116.

With MGESLFDGPRDYNPISSSICHLTNESDGHTTSLYGIGFGPFIITNKHLFRRNNGTLVVQSLHGVFKVKDTTTLQQHLVDGRDMIIIRMPKDFPPFPQKLKFREPQREERICLVTTNFQTKSMSSMVSDTSCTFPSGDGIFWKHWIQTKDGQCGSPLVSTRDGFIVGIHSASNFTNTNNYFTSVPKNFMELLTNQEAQQWVSGWRLNADSVLWGGHKVFMVKPEEPFQPVKEATQL [K7D] the “area with substrate EALYFQS” value was 0.107, the “area with substrate ECLYFQS” value was 0.0743 and the “area with substrate EDLYFQS” value was 0.0663. For the same variant, the “area with substrate EELYFQS” value was 0.111, the “area with substrate EHLYFQS” value was 0.0822 and the “area with substrate ELLYFQS” value was 0.101. The “area with substrate EMLYFQS” value was 0.104, the “area with substrate EPLYFQS” value was 0.0767 and the “area with substrate EQLYFQS” value was 0.0962. For the same variant, the “area with substrate ERLYFQS” value was 0.0956, the “area with substrate ESLYFQS” value was 0.105 and the “area with substrate EVLYFQS” value was 0.0848. For the same variant, the “area with substrate EWLYFQS” value was 0.101.

In the case of MGESLFKGFRDYNPISSSICHLTNESDGHTTSLYGIGFGPFIITNKHLFRRNNGTLVVQSLHGVFKVKDTTTLQQHLVDGRDMIIIRMPKDFPPFPQKLKFREPQREERICLVTTNFQTKSMSSMVSDTSCTFPSGDGIFWKHWIQTKDGQCGSPLVSTRDGFIVGIHSASNFTNTNNYFTSVPKNFMELLTNQEAQQWVSGWRLNADSVLWGGHKVFMVKPEEPFQPVKEATQL [P9F], the “area with substrate EALYFQS” value is reported as 0.0895, the “area with substrate ECLYFQS” value is reported as 0.0617 and the “area with substrate EDLYFQS” value is reported as 0.0627. For the same variant, the “area with substrate EELYFQS” value was 0.0683, the “area with substrate EFLYFQS” value was 0.0563 and the “area with substrate EGLYFQS” value was 0.0545. The “area with substrate EHLYFQS” value was 0.062, the “area with substrate EILYFQS” value was 0.0577 and the “area with substrate ELLYFQS” value was 0.0488. For the same variant, the “area with substrate EMLYFQS” value was 0.0642, the “area with substrate EQLYFQS” value was 0.0592 and the “area with substrate ERLYFQS” value was 0.0576. The “area with substrate ESLYFQS” value was 0.0676, the “area with substrate EVLYFQS” value was 0.0649 and the “area with substrate EWLYFQS” value was 0.0487.

With MGESLFKGLRDYNPISSSICHLTNESDGHTTSLYGIGFGPFIITNKHLFRRNNGTLVVQSLHGVFKVKDTTTLQQHLVDGRDMIIIRMPKDFPPFPQKLKFREPQREERICLVTTNFQTKSMSSMVSDTSCTFPSGDGIFWKHWIQTKDGQCGSPLVSTRDGFIVGIHSASNFTNTNNYFTSVPKNFMELLTNQEAQQWVSGWRLNADSVLWGGHKVFMVKPEEPFQPVKEATQL [P9L] the “area with substrate EALYFQS” value was 0.172, the “area with substrate ECLYFQS” value was 0.128 and the “area with substrate EDLYFQS” value was 0.119. For the same variant, the “area with substrate EELYFQS” value was 0.105, the “area with substrate EGLYFQS” value was 0.106 and the “area with substrate EHLYFQS” value was 0.104. The “area with substrate EILYFQS” value was 0.0913, the “area with substrate EKLYFQS” value was 0.0807 and the “area with substrate ELLYFQS” value was 0.144. The “area with substrate EPLYFQS” value was 0.136, the “area with substrate ERLYFQS” value was 0.11 and the “area with substrate ESLYFQS” value was 0.127. For the same variant, the “area with substrate EVLYFQS” value was 0.114, the “area with substrate EWLYFQS” value was 0.127 and the “area with substrate EYLYFQS” value was 0.117.

For MGECLFKGPRDYNPISSSICHLTNESDGHTTSLYGIGFGPFIITNKHLFRRNNGTLVVQSLHGVFKVKDTTTLQQHLVDGRDMIIIRMPKDFPPFPQKLKFREPQREERICLVTTNFQTKSMSSMVSDTSCTFPSGDGIFWKHWIQTKDGQCGSPLVSTRDGFIVGIHSASNFTNTNNYFTSVPKNFMELLTNQEAQQWVSGWRLNADSVLWGGHKVFMVKPEEPFQPVKEATQL [S4C], the “area with substrate EALYFQS” value was 0.0934, the “area with substrate ECLYFQS” value was 0.0781 and the “area with substrate EDLYFQS” value was 0.112. The “area with substrate EFLYFQS” value was 0.0936, the “area with substrate EGLYFQS” value was 0.0718 and the “area with substrate EHLYFQS” value was 0.0828. The “area with substrate EILYFQS” value was 0.0689, the “area with substrate EKLYFQS” value was 0.088 and the “area with substrate ELLYFQS” value was 0.0809. For the same variant, the “area with substrate EMLYFQS” value was 0.0877, the “area with substrate EPLYFQS” value was 0.0851 and the “area with substrate EQLYFQS” value was 0.0755. The “area with substrate ERLYFQS” value was 0.0703, the “area with substrate ESLYFQS” value was 0.0956 and the “area with substrate ETLYFQS” value was 0.0997. The “area with substrate EVLYFQS” value was 0.0852, the “area with substrate EWLYFQS” value was 0.0736 and the “area with substrate EYLYFQS” value was 0.0874.

With MGEHLFKGPRDYNPISSSICHLTNESDGHTTSLYGIGFGPFIITNKHLFRRNNGTLVVQSLHGVFKVKDTTTLQQHLVDGRDMIIIRMPKDFPPFPQKLKFREPQREERICLVTTNFQTKSMSSMVSDTSCTFPSGDGIFWKHWIQTKDGQCGSPLVSTRDGFIVGIHSASNFTNTNNYFTSVPKNFMELLTNQEAQQWVSGWRLNADSVLWGGHKVFMVKPEEPFQPVKEATQL [S4H] the “area with substrate EALYFQS” value was 0.147, the “area with substrate ECLYFQS” value was 0.131 and the “area with substrate EDLYFQS” value was 0.112. For the same variant, the “area with substrate EELYFQS” value was 0.185, the “area with substrate EGLYFQS” value was 0.173 and the “area with substrate EHLYFQS” value was 0.135. For the same variant, the “area with substrate EILYFQS” value was 0.115, the “area with substrate EKLYFQS” value was 0.162 and the “area with substrate EMLYFQS” value was 0.147. For the same variant, the “area with substrate EQLYFQS” value was 0.129, the “area with substrate ERLYFQS” value was 0.111 and the “area with substrate ESLYFQS” value was 0.125. For the same variant, the “area with substrate ETLYFQS” value was 0.124, the “area with substrate EVLYFQS” value was 0.115 and the “area with substrate EWLYFQS” value was 0.0925. For the same variant, the “area with substrate EYLYFQS” value was 0.207.
